# In all, about 390,000 compounds went through this assay and about 150 (0.038%) were called active. The shares of active, inactive and inconclusive entries below differ from those in the screen. Calls follow the shape of the dose curve; as a rule, active = well fitted inhibition curve with a large enough effect; inconclusive = small, poorly fitted or top-dose-only effect; inactive = no such curve, though single readings can be large or run the other way. Where the call is inconclusive, the potency comes from a doubtful curve fit.
# Target: Regulator of G-protein signaling 4 (Homo sapiens) (UniProt P49798)
# UniProt P49798, sequence (P49798 whole entry, looked up): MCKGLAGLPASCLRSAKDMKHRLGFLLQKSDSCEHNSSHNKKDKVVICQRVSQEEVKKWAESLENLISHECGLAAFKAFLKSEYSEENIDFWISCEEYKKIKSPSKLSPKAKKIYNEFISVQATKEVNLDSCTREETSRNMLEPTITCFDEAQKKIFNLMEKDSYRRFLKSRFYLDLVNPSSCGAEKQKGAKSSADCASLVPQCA
# Assay: Inhibitors of Regulator of G Protein Signaling (RGS) 4: qHTS; also: nearly all actives have a fitted effect of over 75% in size
# Details: Transcreener GDP fluorescence polarization, RGS4-accelerated GTP hydrolysis; series mostly up to 114 µM; activity change, negative = inhibition: at the top concentration
# How it was run: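 MLSMR compounds (23 nl, pin-transferred) preincubated 10 min at room temperature with a 500nM (2x) first reagent, then RGS4 at 900nM (2x) plus Transcreener GDP mix added; fluorescence polarization (620/688 nm) read before and after 90 min at 30 °C.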
# % is scaled to controls: 0 for no effect and ±100 for the full control effect; potency is read from the fitted curve at half-maximal effect; tags tell the direction and shape of the fitted curve.
SMILES,"activity change, negative = inhibition",Potency
CC(C)N1C(=O)NC2(c3ccccc3)N(C)C(=O)N(C)C12c1ccccc1 (stereo not drawn),inactive: 12.4%,–
O=C(NC(=S)Nc1ccc(Oc2ccc(Cl)cc2)cc1)c1ccccc1,–,"inconclusive: 79.4 µM [inhibitor, partial curve, poor fit]"
COc1ccc(CN=Cc2c(C(F)(F)F)[nH][nH]c2=O)cc1,–,"inconclusive: 89.1 µM [inhibitor, partial curve, poor fit]"
COC(=O)c1ccc(NC(=O)C(=O)N2CCN(C(=S)Nc3cccc(OC)c3)CC2)cc1,inactive: -23%,–
Cc1nn(CCc2nc(-c3ccco3)cs2)c2[nH]c(=O)cc(C(F)(F)F)c12,–,"inconclusive: 25.1 µM [inhibitor, full curve, poor fit]"
COc1ccccc1NC(=O)N1CCN(c2ccc3nnc(-c4ccc(F)cc4)n3n2)CC1,–,"inconclusive: 79.4 µM [inhibitor, partial curve, poor fit]"
CCCCCCCCCCCCCCCCOCC(COP(=O)([O-])OCC[N+](C)(C)C)OC (stereo not drawn),–,"inconclusive: 0.0067 µM [inhibitor, full curve, poor fit]"
Cc1cc(N(CCO)CCO)ccc1N=Nc1cc(F)ccc1F,inactive: 1.54%,–
CCCCCCCc1ccc(-c2ccc(O)cc2)nc1,–,"inconclusive: 50.1 µM [inhibitor, partial curve, poor fit]"
CCc1ccc(NC(=O)Cn2nnc(-c3ccccc3N)n2)cc1,inactive: 0.274%,–
CC(=O)Nc1ccc(OCC(O)Cn2c3ccccc3c3ccccc32)c(C)c1 (stereo not drawn),inactive: -7.88%,–
C=CC(=O)Nc1cccc(Nc2nc(N[C@H]3CC[C@H](N(C)C)CC3)nc3c2ncn3C(C)C)c1,inactive: -19%,–
COc1cccc2c1C(=O)c1c(O)c3c(c(O)c1C2=O)CC(O)(C(C)=O)CC3OC1CC(O)C(O)C(C)O1 (stereo not drawn),inactive: -31.4%,–
Cc1nn(C)c(Sc2ccccc2N)c1[N+](=O)[O-],–,"inconclusive: 50.1 µM [inhibitor, partial curve, poor fit]"
CCc1ccc(OCC(=O)NNC(=O)Cc2c(F)cccc2Cl)cc1,–,"inconclusive: 79.4 µM [inhibitor, single point]"
N#Cc1c(NC(=O)c2ccc(Cn3cc(Br)cn3)o2)sc2c1CCCCCC2,–,"inconclusive: 50.1 µM [inhibitor, partial curve, poor fit]"
COc1cccc2cc(-c3nc4sc5c(c4c(=O)[nH]3)CCC(C(C)(C)C)C5)c(=O)oc12 (stereo not drawn),inactive: 14.2%,–
Cc1cccc(NC(=O)CSc2nc(C3CC3)nc3ccccc23)c1,–,"inconclusive: 70.8 µM [inhibitor, partial curve, poor fit]"
C#CC(=O)N(c1ccc(OC)cc1OC)C(C(=O)NC1CCCC1)c1cccs1 (stereo not drawn),–,"inconclusive: 50.1 µM [inhibitor, partial curve, poor fit]"
COc1ccc(CCNC(=O)c2cc(=O)c3cc(C)c(C)cc3o2)cc1OC,–,"inconclusive: 44.7 µM [inhibitor, partial curve, poor fit]"
Cc1cc(Cl)cc(C)c1OCC(=O)O,–,"inconclusive: 89.1 µM [inhibitor, single point]"
Cc1ccccc1/C=C/C(=O)c1ccc([N+](=O)[O-])o1,–,"inconclusive: 17.8 µM [inhibitor, full curve, poor fit]"
Cc1ccc(-n2c(N)c(C(N)=O)sc2=S)cc1,–,"inconclusive: 89.1 µM [inhibitor, partial curve, poor fit]"

SMILES,"activity change, negative = inhibition",Potency
CC(C)c1ccc(NC(=O)C2CC3CCC2C3)cc1 (stereo not drawn),inactive: -27.5%,–
COc1cc(/C=C/C(=O)Nc2nnc(CC(C)(C)C)s2)cc(OC)c1OC,–,"inconclusive: 100 µM [inhibitor, partial curve, poor fit]"
Cn1c(=O)c2[nH]c(=S)n(Cc3ccccc3)c2n(C)c1=O,–,"inconclusive: 20 µM [inhibitor, full curve, poor fit]"
CCN(CCO)C1CC(=O)N(c2ccccc2C)C1=O (stereo not drawn),–,"inconclusive: 89.1 µM [inhibitor, single point]"
O=C(COc1ccccc1[N+](=O)[O-])N1CCC(Cc2ccccc2)CC1,–,"inconclusive: 50.1 µM [inhibitor, partial curve, poor fit]"
O=C(Oc1cccc2cccnc12)c1ccc(Br)o1,–,"inconclusive: 100 µM [inhibitor, single point]"
CCn1c(-c2ccccc2Cl)nn(CC(=O)Nc2ccc(OC)cc2)c1=S,inactive: 2.29%,–
N#Cc1cc2c(=O)n3ccccc3nc2n(-c2nnc(SCc3ccccc3Cl)s2)c1=O,inactive: -10.7%,–
COc1ccc(OC)c(NC(=O)CCN2CCN(CCO)CC2)c1,–,"inconclusive: 89.1 µM [inhibitor, single point]"
CCCN1C(=O)S/C(=C\c2ccc(N3CCOCC3)o2)C1=O,–,"inconclusive: 31.6 µM [inhibitor, partial curve, poor fit]"
CC1CCCN(C(=O)CNC(=O)c2sc3ccccc3c2Cl)C1 (stereo not drawn),inactive: -7.49%,–
COc1ccccc1/C=N/NC(=O)CC(=O)Nc1ccc(Cl)c(Cl)c1,inactive: 18.5%,–
COc1cc(/C(C)=N/N2CCN(c3ccccc3OC)CC2)ccc1O,inactive: -15.5%,–
Cc1ccc(/C=N/n2c(C)nnc2C)s1,–,"inconclusive: 89.1 µM [inhibitor, single point]"
CCOc1ccc(NC(=O)C(c2ccccn2)N(C(=O)CCl)c2ccc(OCC)cc2)cc1 (stereo not drawn),–,"inconclusive: 79.4 µM [inhibitor, partial curve, poor fit]"
O=c1cc(-c2ccccc2)n(S(=O)(=O)c2ccc3ccccc3c2)o1,–,"inconclusive: 44.7 µM [inhibitor, partial curve, poor fit]"
Cc1ccccc1NC(NC(=O)c1cccnc1)C(Cl)(Cl)Cl (stereo not drawn),inactive: -18.4%,–
Nc1cc2c3ccccc3ccc2c2ccccc12,inactive: -22.3%,–
CC(C)Sc1nc2ccccc2[nH]1,inactive: -4.37%,–
CC1(C)Cc2c(c(N3CCOCC3)nc3sc(-c4ccc(C(=O)O)o4)c(N)c23)CO1,–,"inconclusive: 89.1 µM [inhibitor, single point]"
CN(C)S(=O)(=O)c1ccc(C(=O)NCCOc2ccccc2)cc1,inactive: 1.81%,–
Oc1cc2c(cc1C(c1ccc(Br)cc1)N1CCCC1)OCO2 (stereo not drawn),–,"inconclusive: 31.6 µM [inhibitor, full curve, poor fit]"
O=C(CN1CCCCC1)NC(=O)NCc1ccccc1,–,"inconclusive: 89.1 µM [inhibitor, single point]"

SMILES,"activity change, negative = inhibition",Potency
CCC(C)NC(=O)CN(c1ccc(OC)cc1)S(=O)(=O)c1ccccc1 (stereo not drawn),–,"inconclusive: 89.1 µM [inhibitor, partial curve, poor fit]"
Cn1c(=O)n(C)c2cc(N3CCOCC3)c(NS(=O)(=O)c3cccc(C#N)c3)cc21,–,"inconclusive: 79.4 µM [inhibitor, partial curve, poor fit]"
Nc1ccc2oc(-c3cc(Br)ccc3Cl)nc2c1,–,"inconclusive: 50.1 µM [inhibitor, partial curve, poor fit]"
CCCOC(=O)c1cc(-c2ccc(/C=C3/C(=O)N(C)C(=O)C(C#N)=C3C)o2)ccc1Cl,–,"inconclusive: 79.4 µM [inhibitor, partial curve, poor fit]"
O=C(CN1CCN(S(=O)(=O)c2ccc(Br)cc2)CC1)Nc1ccc2c(c1)OCO2,–,"inconclusive: 79.4 µM [inhibitor, single point]"
COc1cc(C2C(C#N)=C(N)N(c3ccc(F)cc3)C3=C2S(=O)(=O)CC3)ccc1O (stereo not drawn),–,"inconclusive: 56.2 µM [inhibitor, partial curve, poor fit]"
CCOC(=O)C(C)Sc1nc(-c2ccccc2)nc2ccccc12 (stereo not drawn),–,"inconclusive: 100 µM [inhibitor, partial curve, poor fit]"
Cc1cc(NC(=O)c2ccc([N+](=O)[O-])cc2)no1,–,"inconclusive: 79.4 µM [inhibitor, partial curve, poor fit]"
O=C(N[C@@H](Cc1ccccc1)C(=O)N1CCC2(CC1)NCCc1[nH]cnc12)c1cccc(Br)c1,inactive: -1.7%,–
CCN1CCN(Cc2ccc(NC(=O)c3ccc(C)c(NC(=O)c4c[nH]c5cc(C(F)(F)F)ccc5c4=O)c3)cc2C(F)(F)F)CC1,–,"inconclusive: 20 µM [inhibitor, full curve, poor fit]"
CC(=O)Nc1ccc(/C(C)=N/NC(=O)c2ccncc2)cc1,–,"inconclusive: 79.4 µM [inhibitor, partial curve, poor fit]"
Cc1cccc(CN2CCN(Cc3ccco3)CC2)c1,inactive: -3.88%,–
CC(C)(C)N(Cc1ccccc1)C(=O)COC(=O)CSc1ccc([N+](=O)[O-])cc1,–,"inconclusive: 17.8 µM [inhibitor, full curve, poor fit]"
Cc1ccc(Cl)c(NC(=O)COC(=O)c2cc[n+]([O-])cc2)c1Cl,inactive: -8.94%,–
CCOC(=O)c1c(-c2ccccc2)nc2c(C)cccn12,inactive: 16.3%,–
COc1ccc(N2C(S)=C(C#N)C(=O)NC2c2ccc(OC)c(OC)c2)cc1 (stereo not drawn),–,"inconclusive: 50.1 µM [inhibitor, partial curve, poor fit]"
COc1ccc2cc(C#N)c(SCC(=O)N3CCCC3)nc2c1,inactive: -2.35%,–
CCS(=O)(=O)N1CCN(C(=O)c2cccnc2)CC1,inactive: -32.7%,–
COc1ccc(OC)c(NC(=S)Nc2ccccc2)c1,inactive: -29%,–
COc1ccc(S(=O)(=O)NC(C)CCc2ccccc2)cc1 (stereo not drawn),–,"inconclusive: 35.5 µM [inhibitor, full curve, poor fit]"
C=CCN(c1ccccc1)S(=O)(=O)c1ccc2c(c1)NC(=O)C(C)C(=O)N2 (stereo not drawn),inactive: 5.76%,–
CC(=O)N1CCc2cc(CNC(=O)Nc3cc(Cl)ccc3C)ccc21,–,"inconclusive: 44.7 µM [inhibitor, partial curve, poor fit]"

# — PubChem BioAssay AID504845 (National Center for Advancing Translational Sciences (NCATS), 2011)
